PubChem BioAssay AID588342 (National Center for Advancing Translational Sciences (NCATS), 2011)
About 25,000 (6.9%) of roughly 360,000 compounds were called active. This list was built around the results that the source calls inconclusive (neither active nor inactive); the mix of calls is not that of the screen. Calls follow the shape of the dose curve; as a rule, active = well fitted inhibition curve with a large enough effect; inconclusive = small, poorly fitted or top-dose-only effect; inactive = flat fitted curve, though single readings scatter. Potencies of inconclusive entries are doubtful fits and often do not repeat.

Target: Luciferin 4-monooxygenase (Photinus pyralis) (UniProt P08659)
Sequence of UniProt P08659 (P08659 whole entry, looked up): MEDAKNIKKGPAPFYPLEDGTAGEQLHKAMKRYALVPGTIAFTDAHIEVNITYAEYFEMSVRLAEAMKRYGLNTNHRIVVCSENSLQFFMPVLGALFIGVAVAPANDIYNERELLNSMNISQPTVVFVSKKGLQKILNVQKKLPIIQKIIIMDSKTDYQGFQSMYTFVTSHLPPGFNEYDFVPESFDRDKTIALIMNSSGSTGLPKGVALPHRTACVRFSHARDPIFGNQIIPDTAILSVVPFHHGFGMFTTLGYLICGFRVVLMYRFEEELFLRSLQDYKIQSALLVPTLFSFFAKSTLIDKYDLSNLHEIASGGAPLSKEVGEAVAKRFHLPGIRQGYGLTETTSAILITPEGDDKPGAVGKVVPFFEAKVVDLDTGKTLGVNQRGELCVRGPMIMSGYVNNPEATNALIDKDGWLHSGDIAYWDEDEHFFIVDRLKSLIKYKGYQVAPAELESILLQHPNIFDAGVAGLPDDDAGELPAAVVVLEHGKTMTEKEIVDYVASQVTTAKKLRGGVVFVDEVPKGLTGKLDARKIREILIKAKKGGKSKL
Assay: qHTS profiling assay for firefly luciferase inhibitor/activator using purifed enzyme and Km concentrations of substrates (counterscreen for miR-21 project); also: nearly all actives have a fitted effect of over 55% in size
Details: purified FLuc, luminescence inhibition; series mostly up to 57.5 µM
Summary of the method: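 Biochemical qHTS of compounds, final roughly 60 µM downward over six points, against 10 nM purified firefly luciferase using Km concentrations of substrates (10 uM D-luciferin, 10 uM ATP) in Tris acetate pH 7.5 buffer; luminescence output.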
Potency is read from the fitted curve at half-maximal effect; tags tell the direction and shape of the fitted curve.

Structure (SMILES) | Potency
CC(C)Nc1nc(Cl)nc(Nc2ccccc2)n1 | inconclusive: 16.9 µM [inhibitor, partial curve]
O=C(c1cc(-c2cccc(O)c2)on1)N1CCc2ccccc2C1 | inconclusive: 37.9 µM [inhibitor, single point]
Cc1cc(C(=O)COc2cccc([N+](=O)[O-])c2)c(C)n1C1CC1 | active: 2.39 µM
COc1ccc(C)cc1NC(=O)c1ccc2c(Cl)c3c(nc2c1)CCC3 | active: 1.69 µM
Cc1ccc(OCC(=O)Nc2cccc(-c3nnc(-c4ccccc4)o3)c2)cc1 | inconclusive: 6.75 µM [inhibitor, partial curve, poor fit]
Cc1cccn2cc(COc3cccc([N+](=O)[O-])c3)nc12 | inconclusive: 21.3 µM [inhibitor, partial curve, poor fit]
COc1ccc(S(=O)(=O)c2c(SC)nn(Cc3ccccc3C)c2NC(C)=O)cc1 | inactive
O=C(Nc1ccc(F)c([N+](=O)[O-])c1)c1ccc2c(c1)OCCO2 | active: 6.01 µM
CC(c1ccco1)N(C(=O)Nc1ccc(Cl)cc1)c1ccccn1 (stereo not given) | inconclusive: 23.9 µM [inhibitor, single point]
CC(NC(=O)CCc1nnc(-c2ccc(-c3ccccc3)cc2)o1)c1nccs1 (stereo not given) | active: 16.9 µM
CCOC(=O)CNC(=O)CNC(=O)c1nn(-c2ccc(OC)c(Cl)c2)c(=O)c2ccccc12 | inactive
CC(C)CNC(=O)c1ccc(NC(=O)c2cccs2)cc1 | inconclusive: 12 µM [inhibitor, partial curve, poor fit]
Cc1cnc(C(=O)Nc2ccc(C)c(S(=O)(=O)N3CCCCCC3)c2)cn1 | inconclusive: 15.1 µM [inhibitor, partial curve]
CC1(C)CC2CC(C)(CN2C(=O)Cc2ccccc2)C1 (stereo not given) | inconclusive: 8.49 µM [inhibitor, single point]
COc1ccc(CNc2ncnc3c2nnn3C)cc1 | inactive
CCN(/N=C/c1ccc(Cl)cc1)c1cc(=O)n(C)c(=O)[nH]1 | inconclusive: 10.7 µM [inhibitor, partial curve, poor fit]
O=C(Nc1ccc(N2CCOCC2)cc1)c1cc2c(s1)CCCC2 | inconclusive: 26.9 µM [inhibitor, single point]
CCc1ccccc1NC(=O)Cn1nnc(C(=O)Nc2ccc(C)c(F)c2)c1N | inactive
COc1ccc(CN2C(=O)C(NC(=O)c3ccccc3C)(C(F)(F)F)N=C2c2ccccc2)cc1 (stereo not given) | inactive
Cc1ccc2oc(-c3ccc(Cl)c(NC(=O)c4ccc(-c5ccccc5[N+](=O)[O-])o4)c3)nc2c1 | inconclusive: 23.9 µM [inhibitor, single point]
O=C(Nc1ccccc1)c1cccc(=O)o1 | inactive
Nc1c(-c2ccc(Cl)cc2)cnn1-c1cccc(C(F)(F)F)c1 | inconclusive: 10.7 µM [inhibitor, partial curve]
Cn1c(-c2ccc(Cl)nc2)nc2ccccc21 | inconclusive: 26.9 µM [inhibitor, partial curve, poor fit]
CCc1ccc(-c2ccc(SCC(=O)NCC3CCCO3)nn2)cc1 (stereo not given) | active: 3.38 µM
Cc1cccc(NC(=S)NC(=O)/C=C/c2ccco2)c1 | inconclusive: 30.1 µM [inhibitor, single point]

Structure (SMILES) | Potency
CC(=O)Nc1ccc(-c2csc(N/N=C\c3ccncc3)n2)cc1 | active: 7.57 µM
O=C(O)c1ccn(CSc2cc(Cl)ccc2Cl)n1 | inactive
CC(C)(C)c1ccc(OCC(=O)Nc2ccncc2)c(Br)c1 | active: 21.3 µM
Cc1cccn2c(=O)cc(COc3cccc(NC(=O)c4ccccc4F)c3)nc12 | inactive
Cc1nc(Nc2ccccc2)sc1C(=O)Nc1ccccc1 | inconclusive: 23.9 µM [inhibitor, partial curve]
COc1ccc(NC(=O)Cn2c(=O)n(Cc3nc(-c4ccccc4)no3)c(=O)c3cc4c(cc32)OCO4)cc1Cl | inactive
O=C(COc1ccc(C(=S)N2CCCC2)cc1)Nc1ccc(F)cc1 | inactive
O=C(Nc1ccc(Cl)c(Cl)c1)N1CCC(c2ccccc2)C1 (stereo not given) | active: 1.69 µM
COc1ccc([C@]23Cc4ccccc4C(O2)C2=C(CC4(CCCCC4)OC2=O)O3)cc1 | inconclusive: 4.9 µM [inhibitor, single point]
CCc1cc2c(-n3nc(C)cc3C)ncnc2s1 | inconclusive: 8.49 µM [inhibitor, single point]
O=C(COC(=O)c1ccc(O)cc1O)NC12CC3CC(CC(C3)C1)C2 | inconclusive: 21.3 µM [inhibitor, partial curve, poor fit]
O=C(NCc1ccccc1)c1cccc(COc2cc(Cl)ccc2Cl)c1 | inconclusive: 16.9 µM [inhibitor, partial curve]
O=C(Nc1ccc(F)cc1F)c1noc2c1CCc1ccccc1-2 | inconclusive: 1.51 µM [inhibitor, full curve]
CCc1nc(SCC(=O)Nc2ccc(NC(C)=O)cc2)n[nH]1 | inactive
CC(C)CCNC(=O)CSCc1cnn(-c2ccccc2)c1-n1cccc1 | inactive
CCCOc1ccc(/C=C/C(=O)Nc2sc(C)c(C)c2C(=O)OCC)cc1OC | inconclusive: 15.1 µM [inhibitor, partial curve, poor fit]
Cn1nc(-c2ccccc2)cc1NC(=O)Nc1ccccc1F | inconclusive: 21.3 µM [inhibitor, partial curve, poor fit]
CCCOc1ccc(NC(=O)CC2C(=O)N(c3ccc(C)cc3)C(=O)N2C(C)C)cc1 (stereo not given) | inactive
COc1ccccc1C1NC(=O)NC(C)=C1C(=O)OC1CCC(C)CC1 (stereo not given) | inactive
Cc1cc(N2CCN(c3ccc(F)cc3)CC2)nc2cc(O)ccc12 | inconclusive: 26.9 µM [inhibitor, single point]
O=C(O)c1cc(NC(=O)c2ccc3c(c2)C(=O)N(Cc2ccccc2)C3=O)cc(C(=O)O)c1 | inactive
COc1ccc(NC2=Nc3ccccc3CC2)cc1 | active: 10.7 µM
CCOc1ncccc1C(=O)OCc1ccc(C(=O)OC)cc1 | inconclusive: 23.9 µM [inhibitor, partial curve, poor fit]
N#CC1=C(Nc2ccccc2Cl)SC(c2ccccc2O)NC1=O (stereo not given) | inconclusive: 23.9 µM [inhibitor, partial curve, poor fit]
O=C(Nc1ccccc1F)N1CCc2ccccc2C1 | active: 15.1 µM

Structure (SMILES) | Potency
Cc1[nH]c2c(Br)cccc2c1[C@H]1[C@@H](CC#N)C1(C)C | inconclusive: 26.9 µM [inhibitor, single point]
Cc1ccc(N(CC(=O)NC(C)(C)C)C(=O)CNC(=O)c2cccs2)c(C)c1 | inactive
CC(=O)Oc1ccc(-c2cccc(C(=O)NCC(=O)O)c2)cc1 | inconclusive: 21.3 µM [inhibitor, single point]
COc1ccc(NC(=O)c2ccc(CN3C(=O)CCn4nc(C)cc43)cc2)c(OC)c1 | inactive
COc1ccc(CCc2nnc(CCC(=O)NCc3cc(C(C)C)no3)o2)cc1 | active: 16.9 µM
Oc1ccc(Cl)cc1C=Nc1ccc(Br)cc1 | inconclusive: 26.9 µM [inhibitor, single point]
COc1cc(/C=C(\C#N)c2ccccn2)ccc1OCc1ccccc1Cl | inactive
CCOc1ccc(NC(=O)/C=C/c2ccccc2)c([N+](=O)[O-])c1 | inconclusive: 4.26 µM [inhibitor, partial curve, poor fit]
O=C(COc1ccc(F)cc1Cl)Nc1nc(-c2ccccn2)cs1 | inconclusive: 8.49 µM [inhibitor, partial curve]
COCCNC(=O)Cc1c(C)c2c(cc(C)c3c(C)coc32)oc1=O | inconclusive: 26.9 µM [inhibitor, partial curve, poor fit]
c1ccc2c(c1)Cn1nc(Cc3nc4c(s3)CCCC4)nc1-2 | active: 16.9 µM
O=C(OCC(=O)c1ccc(Cl)cc1Cl)c1cnccn1 | active: 12 µM
C(=N\n1cnnc1)/c1cccnc1 | inactive
Nc1nnc(SCC(=O)c2ccc3ccccc3c2)s1 | active: 19 µM
COc1ccc(OCCCC(=O)Nc2nccs2)cc1 | inconclusive: 42.6 µM [inhibitor, partial curve, poor fit]
CCN1CCN(C(=O)C2(NC(=O)Nc3ccccc3Cl)CCCCC2)CC1 | inactive
CCN1CCn2c3c(c4cc(C)ccc42)CCCC31 (stereo not given) | inconclusive: 23.9 µM [inhibitor, partial curve, poor fit]
CC(C)(C)c1ccc(OCc2ccc(C(=O)N/N=C/c3ccc(O)c(O)c3)cc2)cc1 | inconclusive: 21.3 µM [inhibitor, single point]
O=C(CSc1nnc2n1CCCN2)c1ccccc1 | inconclusive: 37.9 µM [inhibitor, partial curve, poor fit]
O=C(Nc1ccc2c(c1)OCO2)N1CCC(CO)(CC2CCCCO2)CC1 (stereo not given) | inconclusive: 30.1 µM [inhibitor, single point]
O=C(NCCc1ccc(F)cc1)c1ccc2c(=O)n3c(nc2c1)CCC3 | inconclusive: 37.9 µM [inhibitor, single point]
O=C(N/N=C/c1ccc(F)cc1)c1ccc(-n2cnnn2)cc1 | inconclusive: 37.9 µM [inhibitor, partial curve, poor fit]
O=C(Nc1ccc(C(=O)N2CCN(c3ccc(F)cc3)CC2)cc1)c1nsc2ccccc12 | active: 7.57 µM
Cc1ccc(OC(=S)Nc2ccc(O)cc2)cc1 | inactive
CCN1CCN(CCCNC(=O)c2ccc3nc(Cc4ccc(OC)cc4)oc3c2)CC1 | inactive
